# According to the supplement of paper PMC3334620:
# In all, about 33,000 sequences were measured (“E-score (-0.5 to 0.5)”: median about -0.011, highest 2% from about 0.28 on). The list shows a part of the results.
# Biological target: T1, Gcr1 (UniProt P07261)
# T1 sequence: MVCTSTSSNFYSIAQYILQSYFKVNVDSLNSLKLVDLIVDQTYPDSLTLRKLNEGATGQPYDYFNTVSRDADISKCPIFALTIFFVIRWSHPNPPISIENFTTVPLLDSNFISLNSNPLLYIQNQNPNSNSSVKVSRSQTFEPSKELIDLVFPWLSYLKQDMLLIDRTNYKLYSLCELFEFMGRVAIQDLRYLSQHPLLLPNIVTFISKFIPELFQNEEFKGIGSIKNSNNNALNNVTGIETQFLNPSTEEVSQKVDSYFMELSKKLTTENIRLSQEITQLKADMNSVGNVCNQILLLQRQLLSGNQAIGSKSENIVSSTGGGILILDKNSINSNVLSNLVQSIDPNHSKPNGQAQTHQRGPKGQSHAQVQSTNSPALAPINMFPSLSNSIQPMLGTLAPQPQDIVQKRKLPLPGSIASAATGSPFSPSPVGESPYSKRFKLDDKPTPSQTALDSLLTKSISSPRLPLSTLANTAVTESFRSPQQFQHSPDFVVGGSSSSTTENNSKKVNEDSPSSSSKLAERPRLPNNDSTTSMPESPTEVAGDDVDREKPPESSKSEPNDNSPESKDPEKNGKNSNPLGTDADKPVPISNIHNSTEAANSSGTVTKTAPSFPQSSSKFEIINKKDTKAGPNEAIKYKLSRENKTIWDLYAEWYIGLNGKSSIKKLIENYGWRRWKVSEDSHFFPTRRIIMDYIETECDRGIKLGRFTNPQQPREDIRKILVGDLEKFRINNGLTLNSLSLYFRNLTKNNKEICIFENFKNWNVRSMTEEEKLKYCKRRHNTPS
# Test: PBM E-score (8-mer binding enrichment) (E-score (-0.5 to 0.5)); higher = stronger / more preferred TF binding; most listed sequences are background and not binding sites
# Conditions: protein concentration: 100 nM; construct: GST-full length
# Procedure, shortened: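 Yeast transcription factors, full-length or as DNA-binding domains, were expressed with a GST tag using PURExpress in vitro transcription/translation. At about 100-200 nM they were applied to universal all-10-mer Agilent arrays, double-stranded by primer extension on fresh or once-stripped slides. Fluorescent anti-GST detected bound protein, and masliner normalised the scans. E-scores for ungapped eight-base words, pooled with reverse complements, came from the Universal PBM Analysis Suite.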
row,Sequence,PBM E-score
1,CAATGGGC,0.0816
2,CCCAGGTA,-0.0866
3,ATGAGCGG,0.0272
4,GGCTTAAC,-0.122
5,ACGATTCG,0.0296
6,CGTGGAGA,0.0235
7,GTTGGTAA,0.146
8,ACGTCCAA,0.00712
9,CGCTGCTA,0.155
10,TCCACCGA,0.0721
11,AAGGGATG,-0.0743
12,GAGGCAAC,-0.0261
13,CGAGGACG,-0.236
14,GTACCAAA,0.0559
15,GGGTTGTA,-0.0845
16,GATTCGAC,-0.115
17,ATGGATCC,0.278
18,TCGGAAGA,-0.0643
19,ATGGGGTA,-0.128
20,ATTTACCG,0.0338
21,GTCCGGTA,0.112
22,CGTATTTC,0.00508
23,GGCTCTTA,0.0578
24,AACCTCAA,-0.0473
25,CATATGCG,-0.145

row,Sequence,PBM E-score
1,TCTACTAA,0.242
2,CAATACCA,0.0114
3,GGTAGAGA,-0.0114
4,AAATCGCG,0.081
5,TCCATCGA,-0.286
6,TGCGCGAA,0.14
7,ACGATCAA,-0.129
8,GCTGACCC,-0.26
9,GAGATCGA,-0.176
10,CAACTGGC,0.0226
11,CCTCCACC,-0.103
12,ACTTTACT,0.0341
13,ACGGAGCA,0.0458
14,GTCGTGCA,-0.243
15,AAAGACTG,-0.0957
16,AAGCCTTA,-0.0336
17,AGTGGTTA,0.00449
18,AGGGTAGG,-0.174
19,CCATACGC,0.108
20,ACTTGGTA,-0.0608
21,ATACAGTG,0.242
22,GGGGTACC,0.0626
23,CTGGGGAC,-0.133
24,AGTTATTC,0.0537
25,GGGCTTAA,-0.0342

row,Sequence,PBM E-score
1,TAGTAGAA,0.262
2,ATTGTAGA,0.15
3,GCGGCGAA,-0.0635
4,ACTACGAG,-0.171
5,CCGCTGAA,0.0435
6,CCTGCTCA,-0.0926
7,AAGTAACA,-0.0228
8,AAAAAGGT,0.0465
9,GCCTTGAC,-0.0688
10,GCCCAGAA,0.0213
11,CCTTAGCG,-0.0185
12,CCAGCGGC,0.0546
13,CTAGTAGC,0.188
14,ACTCATAC,-0.0499
15,CTTAGACA,-0.142
16,ATTGAAGC,-0.164
17,TATTTGAA,0.184
18,CCAACACA,0.11
19,AATCGCAT,-0.13
20,AAGGTCTA,-0.0405
21,TACTAATA,0.25
22,GGCATGAC,-0.261
23,ATAACTAT,0.0438
24,CTCATCTC,-0.144
25,GCGCGCAC,0.0775

row,Sequence,PBM E-score
1,CGGTGACG,-0.0907
2,AGTGAGTA,-0.199
3,ACGCCGCC,0.228
4,GTCGAGTA,-0.0481
5,AACGCGAA,0.00964
6,GTTAGACA,-0.135
7,CGTGTGTA,-0.127
8,AATGCGTG,0.155
9,AATCCGGA,0.13
10,CGCCTCAA,-0.0131
11,CACTTTTA,0.215
12,ATTCTGAC,-0.00979
13,CCAGAATC,0.245
14,GCTCTAAC,-0.0233
15,CACTGAGG,0.0647
16,GATAATCA,0.164
17,TGTAGTAA,-0.0583
18,AATTGAAA,0.112
19,CATCATTC,-0.0201
20,ATGTGAAG,0.00624
21,AGGTAAGC,-0.163
22,TCAACCCA,-0.00065
23,ATGAGTGA,-0.0294
24,GCAGCCAA,0.395
25,CATGGGGC,0.0987

row,Sequence,PBM E-score
1,CAGAAGTA,0.0684
2,CTCGGCTC,-0.158
3,ATCTGCAT,0.0153
4,ACTGTTAT,-0.0428
5,AAGTAACT,-0.12
6,TCAAAAAA,0.233
7,AGTGATAG,-0.0549
8,TGCACGAA,-0.0334
9,ACAAACGA,0.0544
10,CCAGCCGG,-0.0426
11,TCAGTGGA,0.113
12,AAGGCGAT,-0.0194
13,CTGGGCGA,-0.25
14,ATCGCGAA,0.179
15,CGAGAAGA,-0.00837
16,CGAAATCA,0.0222
17,GCCTCACA,-0.0736
18,CGAGTTGC,-0.0564
19,ATCGACCG,-0.172
20,GCGAAAAC,-0.00962
21,CATGGATA,-0.163
22,AACACTTA,-0.062
23,ATAACAGG,0.0809
24,CGTTAACA,-0.0497
25,CGGGAGTC,0.151

row,Sequence,PBM E-score
1,AATAACGT,0.00611
2,AAGAGCAC,-0.162
3,CCACGCGA,-0.133
4,GAGCCATA,-0.0931
5,AAACCATA,-0.102
6,GATAGTGA,0.0305
7,CCAAGGGG,-0.116
8,CTCGCTAC,-0.12
9,GAGCTAGC,-0.122
10,AAGATGAG,-0.0648
11,AGAAGCGA,0.0254
12,CAATCAGA,0.0413
13,CACACTGG,0.0866
14,ACAGTCAG,-0.119
15,ACAATTAA,0.0269
16,CACCAACC,0.0464
17,CGTGTCGC,-0.21
18,GGCCCTCA,-0.156
19,AGCCCTGG,-0.154
20,GCCACTAC,0.305
21,ACACATTA,0.0504
22,ACGCATAA,0.126
23,AGGGGGTA,-0.298
24,AGCTGGCA,0.0163
25,CCTTGCGA,-0.079

row,Sequence,PBM E-score
1,AAACTGGC,0.0254
2,ATCAGAAC,0.0381
3,GCAACGGC,0.103
4,ATACGGGG,0.101
5,CTTTCGAC,-0.159
6,AGTCGGAG,-0.0325
7,GGCACGTA,-0.05
8,ACTTTCAC,0.0906
9,CAACCGTC,-0.0544
10,AACACACT,-0.224
11,CCTAGCGC,-0.241
12,AGTGCATG,-0.0492
13,ATATCGCC,-0.0646
14,GCCTTCAA,-0.132
15,TAGCCAAA,0.0476
16,ATATTGCA,0.0981
17,CTCTAGTC,-0.254
18,TGACCCAA,-0.0898
19,ATTATACC,0.161
20,GTTTGATA,0.217
21,CGCAATTA,-0.00265
22,AAAGTACG,0.109
